Reference: a collection of fitness landscapes (doi:10.1126/science.1257360)
The list shows a part of the results.

B1: PhoQ; a variant is named by its letters at X, in order, P23837 (parent)
chain: MKKLLRLFFPLSLRVRFLLATAAVVLVLSLAYGMVALIGYSVSFDKTTFRLLRGESNLFYTLAKWENNKLHVELPENIDKQSPTMTLIYDENGQLLWAQRDVPWLMKMIQPDWLKSNGFHEIEADVNDTSLLLSGDHSIQQQLQEVREDDDDAEMTHSVAVNVYPATSRMPKLTIVVVDTIPVELKSSYMVWSWFIYVLSANLLLVIPLLWVAAWWSLRPIEALAKEVRELEEHNRELLNPATTRELTSLVRNLNRLLKSERERYDKYRTTLTDLTHSLKTPLXXLQXXLRSLRSEKMSVSDAEPVMLEQISRISQQIGYYLHRASMRGGTLLSRELHPVAPLLDNLTSALNKVYQRKGVNISLDISPEISFVGEQNDFVEVMGNVLDNACKYCLEFVEISARQTDEHLYIVVEDDGPGIPLSKREVIFDRGQRVDTLRPGQGVGLAVAREITEQYEGKIVAGESMLGGARMEVIFGRQHSAPKDE

Variants of: B1
Experiment: enrichment ratio after two sorts for PhoP signalling (ratio (wild type AVST 3.29)); higher = more functional
Details: with PhoP (E. coli)

Variant | enrichment ratio
MHWW | ≤ 0.25
VSRE | ≤ 0.25
NWYC | ≤ 0.25
VYDF | ≤ 0.25
ENFG | ≤ 0.25
TPFP | ≤ 0.25
QRMP | ≤ 0.25
HGLV | 7.08
PPTW | ≤ 0.25
DNKL | ≤ 0.25
GMIV | 0.55
GQRY | ≤ 0.25
FWCY | ≤ 0.25
SLFM | ≤ 0.25
QKCF | ≤ 0.25
RNSF | ≤ 0.25
AGFV | 5.65
DTLG | ≤ 0.25
LYVW | ≤ 0.25
YQQV | ≤ 0.25
IPGG | ≤ 0.25
DEFC | ≤ 0.25
AAFK | ≤ 0.25
GSGG | ≤ 0.25
ISNC | ≤ 0.25
NDIW | ≤ 0.25

Variant | enrichment ratio
MTPQ | ≤ 0.25
DCAY | ≤ 0.25
STDH | ≤ 0.25
SFDG | ≤ 0.25
KCDC | ≤ 0.25
WRDL | ≤ 0.25
HCTA | ≤ 0.25
TTLW | ≤ 0.25
GIPT | ≤ 0.25
SWMV | ≤ 0.25
KSIV | ≤ 0.25
QHKG | ≤ 0.25
LRHT | ≤ 0.25
INDQ | ≤ 0.25
PKQW | ≤ 0.25
PRQK | ≤ 0.25
QCYS | ≤ 0.25
RTMS | ≤ 0.25
RGDN | ≤ 0.25
TKHD | ≤ 0.25
VNKA | ≤ 0.25
QSLP | 0.302
AGGY | 10
AMQY | ≤ 0.25
QDVK | ≤ 0.25
RSWG | ≤ 0.25

Variant | enrichment ratio
INCQ | ≤ 0.25
RPAL | ≤ 0.25
PMHL | 0.525
HMYL | ≤ 0.25
MAND | ≤ 0.25
CLCG | ≤ 0.25
VKYY | ≤ 0.25
VDTS | ≤ 0.25
DWCN | ≤ 0.25
PGYY | ≤ 0.25
VYLL | ≤ 0.25
HWFR | ≤ 0.25
EDVN | ≤ 0.25
LMQY | ≤ 0.25
SCPY | ≤ 0.25
GDKI | ≤ 0.25
ACLW | 4.69
WVAG | ≤ 0.25
WWVQ | ≤ 0.25
VDVH | 4.55
QDLY | ≤ 0.25
CNYG | ≤ 0.25
DHGF | ≤ 0.25
DPGL | ≤ 0.25
RYHC | ≤ 0.25
VHSP | ≤ 0.25

Variant | enrichment ratio
YFHV | ≤ 0.25
TLGL | 6.6
QTPF | ≤ 0.25
PPLT | ≤ 0.25
HTNF | ≤ 0.25
YQNI | ≤ 0.25
HMLL | ≤ 0.25
LLLN | ≤ 0.25
WDIH | ≤ 0.25
LGSK | ≤ 0.25
EKGN | ≤ 0.25
GTHY | ≤ 0.25
NPRK | ≤ 0.25
HWDY | ≤ 0.25
YEYI | ≤ 0.25
FMMY | ≤ 0.25
VYHM | ≤ 0.25
GPHK | ≤ 0.25
KAKS | ≤ 0.25
HHFY | ≤ 0.25
NCTV | ≤ 0.25
SVAN | 6.73
PFMG | ≤ 0.25
YSKR | ≤ 0.25
AMHH | ≤ 0.25
YWCS | ≤ 0.25

Variant | enrichment ratio
VSRA | ≤ 0.25
NANH | ≤ 0.25
RECG | ≤ 0.25
KVDC | ≤ 0.25
YLPH | ≤ 0.25
HPHI | ≤ 0.25
SFEY | ≤ 0.25
FVPS | ≤ 0.25
TLNQ | ≤ 0.25
VFTS | ≤ 0.25
MLLS | ≤ 0.25
IECW | ≤ 0.25
DWYD | ≤ 0.25
CVIP | ≤ 0.25
DPPD | ≤ 0.25
PHFI | ≤ 0.25
NSRV | ≤ 0.25
VWLC | ≤ 0.25
NPPV | ≤ 0.25
AAAV | ≤ 0.25
QQAC | ≤ 0.25
EMYY | ≤ 0.25
YKIQ | ≤ 0.25
REQV | ≤ 0.25
HYPY | ≤ 0.25
NIQN | ≤ 0.25

Variant | enrichment ratio
AFML | ≤ 0.25
EIWD | ≤ 0.25
PSLN | ≤ 0.25
GFIP | ≤ 0.25
VCMN | 2.35
HAPW | 0.597
VCWR | ≤ 0.25
IVHG | ≤ 0.25
QAFW | 1.15
NSDI | ≤ 0.25
EHMF | ≤ 0.25
TANG | 8.2
TASD | 0.376
IFSI | ≤ 0.25
AGLF | 11.1
LVHH | ≤ 0.25
QFKK | ≤ 0.25
RGPN | ≤ 0.25
RFVT | ≤ 0.25
ERNA | ≤ 0.25
RQIV | ≤ 0.25
VWYR | ≤ 0.25
VPCQ | ≤ 0.25
